Hit rate of the full screen: of about 310,000 compounds, about 2,200 (0.71%) showed an effect of 50% or more. Effects have a minus sign here. This is one part of the list.
target: human ether-à-go-go-related gene (hERG) potassium channel (human, UniProt Q12809); assay: primary screen, population patch clamp on CHO cells stably expressing hERG
Sequence (Q12809 whole entry, looked up): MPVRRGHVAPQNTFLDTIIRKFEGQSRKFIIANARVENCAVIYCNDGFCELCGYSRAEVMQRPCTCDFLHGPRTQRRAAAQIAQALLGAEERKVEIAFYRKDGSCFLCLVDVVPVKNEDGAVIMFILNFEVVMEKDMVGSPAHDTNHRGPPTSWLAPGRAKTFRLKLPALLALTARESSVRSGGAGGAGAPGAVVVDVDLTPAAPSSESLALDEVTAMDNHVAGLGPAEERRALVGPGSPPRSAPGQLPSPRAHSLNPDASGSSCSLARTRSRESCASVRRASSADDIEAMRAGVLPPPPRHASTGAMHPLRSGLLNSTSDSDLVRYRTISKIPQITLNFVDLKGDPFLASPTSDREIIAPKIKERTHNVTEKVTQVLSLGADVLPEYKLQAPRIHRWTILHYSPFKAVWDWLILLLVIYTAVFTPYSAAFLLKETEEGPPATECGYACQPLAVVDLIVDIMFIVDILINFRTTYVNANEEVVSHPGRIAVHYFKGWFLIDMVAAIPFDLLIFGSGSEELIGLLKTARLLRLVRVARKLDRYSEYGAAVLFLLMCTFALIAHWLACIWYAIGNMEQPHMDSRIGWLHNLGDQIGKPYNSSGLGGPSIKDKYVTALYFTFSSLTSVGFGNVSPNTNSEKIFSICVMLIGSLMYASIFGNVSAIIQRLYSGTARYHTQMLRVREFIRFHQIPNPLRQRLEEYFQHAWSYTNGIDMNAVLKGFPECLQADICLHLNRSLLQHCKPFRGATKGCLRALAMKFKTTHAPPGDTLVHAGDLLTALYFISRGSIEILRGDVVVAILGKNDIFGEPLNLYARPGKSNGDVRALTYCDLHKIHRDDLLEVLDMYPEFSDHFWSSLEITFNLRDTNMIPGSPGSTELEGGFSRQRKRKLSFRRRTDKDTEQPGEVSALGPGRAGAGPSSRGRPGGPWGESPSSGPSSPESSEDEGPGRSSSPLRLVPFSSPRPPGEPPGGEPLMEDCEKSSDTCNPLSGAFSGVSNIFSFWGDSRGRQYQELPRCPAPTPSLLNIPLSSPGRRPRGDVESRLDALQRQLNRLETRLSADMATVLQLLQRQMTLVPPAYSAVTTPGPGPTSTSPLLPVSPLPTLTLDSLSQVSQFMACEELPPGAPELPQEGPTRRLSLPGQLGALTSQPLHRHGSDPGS

| Structure (SMILES) | hERG current change (%, negative = inhibition) at 1uM [%] |
| --- | --- |
| CCOc1ccc(NC(=S)NCc2cccnc2)cc1 | -4.48 |
| CCn1c(=S)ccc2ccc(OC)cc21 | 4.79 |
| O=C(Cc1ccc(Cl)cc1)NCCN1CCN(C(=O)Cc2ccc(Cl)cc2)CC1 | -18.4 |
| CC1CCCC(NC(=O)c2ccc3c(c2)N(Cc2ccccc2)C(=O)CS3=O)C1C (centres unmarked) | 12.2 |
| O=C(CC1C(=O)NCCN1Cc1cccc(C(F)(F)F)c1)NCCCOc1cccnc1 (centres unmarked) | 15.2 |
| CCOC(=O)/C=c1\s/c(=C\c2c(OCC)ccc3ccccc23)c(=O)n1CC(=O)NCC1CCCO1 (centres unmarked) | 7.26 |
| NC(=O)CN1C(=O)NC(c2ccccc2)(c2ccccc2)C1=O | 16.4 |
| O=C(NCCCN1CCOCC1)c1cnn2c(-c3ccccc3)cc(-c3ccccc3)nc12 | 1.88 |
| O=c1cc(CSc2ccc(Cl)cc2)nc(-c2ccncc2)[nH]1 | 12.3 |
| COc1ccc(-c2csc3nc(-c4ccccc4)oc(=O)c23)cc1OC | 9.88 |
| CN(C(=O)COC(=O)c1cccc(S(=O)(=O)N2CCOCC2)c1)C1CCS(=O)(=O)C1 (centres unmarked) | 11.7 |
| O=C(c1cc2n(n1)C(C(F)(F)F)CC(c1ccco1)N2)N1CCc2ccccc2C1 (centres unmarked) | -13.6 |
| Cc1ccc(-c2nn(-c3ccccc3)cc2/C=C/C(=O)O)o1 | 9.82 |
| CC(C)OCCCNC(=O)c1cc(S(=O)(=O)N2CCc3ccccc32)cn1C | -2.76 |
| CCCCC[n+]1ccn(-c2nc3ccccc3nc2[N-]S(=O)(=O)c2ccc(C)cc2)c1 | 11.3 |
| Nn1cc(-c2ccccc2)nc1SCC(=O)NCC(F)(F)F | 5.69 |
| CC1(C)CC2CC(C)(CN2/C=C2/CCCCC2=O)C1 (centres unmarked) | 0.401 |
| O=C(Nc1ccc(C(=O)N2CCN(c3ccc(F)cc3)CC2)cc1)C1=CSCCO1 | 9.64 |
| O=S(=O)(/N=C(/Nc1cccc2ccccc12)c1ccccc1)c1ccc(Br)cc1 | 19 |
| CCOC(=O)c1cnn(-c2ccc(C(C)C)cc2)c1NC(=O)C1CCC1 | 21.4 |
| Cc1cc(/C=C(\C#N)C(=O)NCc2ccco2)c(C)[nH]1 | 6.66 |
| CN(C)c1ccc(NC(=O)COC(=O)c2cc(Cl)ccc2[N+](=O)[O-])cc1 | 10.1 |

| Structure (SMILES) | hERG current change (%, negative = inhibition) at 1uM [%] |
| --- | --- |
| COc1cc(C#Cc2c(-c3ccccc3OC)oc3ccccc23)cc(OC)c1 | 6.15 |
| Cc1cc(Cl)ccc1C(=O)C1CCCN(Cc2ccon2)C1 (centres unmarked) | 11.4 |
| CCSC(=O)NC12CC3CC(CC(C3)C1)C2 | 11.3 |
| Cn1c(=O)cc(OCC(=O)NCc2cccs2)c2ccccc21 | 7.51 |
| Cc1cc(C)c(NC(=S)NCC2CCN(C(C)c3ccccc3)C2)c(C)c1 (centres unmarked) | 5.99 |
| CC(/C=N/NC(=O)Cn1nnc(N)n1)=C\c1ccc(C(C)C)cc1 | 8.69 |
| CNC(=S)NNc1nc(N2CCOCC2)nc(N2CCOCC2)n1 | 6.94 |
| COc1ccc(NC(=O)CN2C(=O)C(C)Oc3ccc(C)cc32)cc1 (centres unmarked) | 6.56 |
| O=C(Nc1ccccc1Cl)O/N=C(/c1ccccc1)c1ccccn1 | 11.8 |
| CC(C)=NNC1=NC(C)(C)Cc2ccccc21 | 11.8 |
| COc1ccc(C2C(=O)c3ccccc3C2=O)cc1OC | 0.755 |
| CS(=O)(=O)N(CC(=O)N1CCCC1)c1cccc(F)c1 | 18.3 |
| O=C(O)c1cc(S(=O)(=O)N(Cc2ccccc2)c2ccc(Cl)cc2)ccc1Cl | 13.5 |
| Cc1cc(C)nc(SCc2nnc(SCC(=O)O)n2-c2ccccc2)n1 | 8.79 |
| Cl.Fc1ccccc1C(c1nnnn1Cc1ccc2c(c1)OCO2)N1CCN(Cc2ccco2)CC1 (centres unmarked) | -14.4 |
| CCC/C=C(\CCC)C(NC(=O)Cc1ccccc1)c1ccc(C(=O)OC)cc1 (centres unmarked) | -6.38 |
| CCSC1=N/C(=C\c2ccc(-c3ccccc3[N+](=O)[O-])o2)C(=O)S1 | 16.8 |
| N/C(=C/C(=O)c1ccccc1O)C(F)(F)F | 7.51 |
| O=C(CSc1nn(-c2ccc(F)cc2)c(=S)s1)N1CCN(C(=O)c2ccco2)CC1 | -64.6 |
| O=S1(=O)N=C(N2CCN(Cc3ccccc3)CC2)c2ccccc21 | -4.6 |
| Cc1ccc(-n2c(-c3ccco3)nc3c(cnn3-c3ccccc3C)c2=O)cc1 | 14.7 |
| CN(C(=O)C1CCN(S(=O)(=O)c2cccc3nonc23)CC1)C1CCCCC1 | 1.74 |
